Reference: the RNAGym collection of RNA variant scans (doi:10.7554/elife.90254)
Read counts are not given, so values of variants with three or more changes are uncertain.

B1: LINE1-mini (parent)
chain: GGCAGAGCUCAACACAGCGUGGCAAAGUGGCUGUGGCUAGACUGCC

Variants of: B1
Test: self-cleavage, relative activity (ratio to wild type); higher = more cleavage; in vitro, sequencing; the parent is a self-cleaving ribozyme

Which self-cleavage does the source give for GGUCGAGCUCAACACAGCGUGGCAAAGUGGCUGUGGCUAGACUGCA [C3U A4C C46A] here?
The self-cleavage was 0.04.

Which self-cleavage does the source give for GGCAGAGAUCAACACACCGUGGCAAAUUGGCUCUGGCUAGGAUGCC [C8A G17C G27U G33C A41G C42A] here?
The self-cleavage was 0.03.

Which self-cleavage does the source give for GGCACAGCUCAACACGGCGUGGCAAAGUGGCUGUGGCACGAUUGCC [G5C A16G U38A A39C C42U] here?
Its self-cleavage is 0.04.

With GGCAGAGGUCAACACAGCGUGGCAAAGUGUCUGUGUCGAGACUACC [C8G G30U G36U U38G G44A] as the variant, how does the self-cleavage read?
Its self-cleavage is 0.01.

With GGCAAAGCCCAACACAGCGUGGCAAAGUGGCUGUGGCGAGACUGCC [G5A U9C U38G] as the variant, how does the self-cleavage read?
Its self-cleavage is 0.03.

Which self-cleavage does the source give for GUCAGAGAUCACCACAGCGUGGCAAAAUGGCAGUGCCUAGACUGCC [G2U C8A A12C G27A U32A G36C] here?
The self-cleavage was 0.01.

With GGCAGUACUCUACACAGCGUGGCAAAGUGGGUAUGGCUAGUCGGAC [A6U G7A A11U C31G G33A A41U U43G C45A] as the variant, how does the self-cleavage read?
The self-cleavage was 0.

With GGAGGAUCUCAAUACAGCGUGGCAAAGAGGCUGUGCCUAGACUGCC [C3A A4G G7U C13U U28A G36C] as the variant, how does the self-cleavage read?
The self-cleavage was 1.21.

With GGCAGAGCUCAAUAUAGCGUUACAGAGUGGCUGUGGCUAGACUGCC [C13U C15U G21U G22A A25G] as the variant, how does the self-cleavage read?
The self-cleavage was 0.08.

Which self-cleavage does the source give for GGCAGAGCUCAACACCGCGUGGCAAAGUGGCUUUGACUAGACUGCC [A16C G33U G36A] here?
The self-cleavage was 0.

With GGCAGAGCUGAACACAGCGUGGCAAAGUGCCUGUAGCUAGACUGCC [C10G G30C G35A] as the variant, how does the self-cleavage read?
Its self-cleavage is 0.

With GCCAGAGCUCAACACAGCGGGGCAAAGUGGUUGCGGCUAGACUGCC [G2C U20G C31U U34C] as the variant, how does the self-cleavage read?
Its self-cleavage is 0.

With GGCAGAGCUCAACAAAGCGUGGCGAAAUGGCUGUGGCUAGACUGCC [C15A A24G G27A] as the variant, how does the self-cleavage read?
The self-cleavage was 0.04.

For GGCAGAGCUCAAGGCAGCGUAGCAAAGUGGCUGUGGCUAAACUGCC [C13G A14G G21A G40A], which self-cleavage is on record?
The self-cleavage was 0.02.

For GGCAGAGCUUAACACAGAUUGGCAAAGUGGCUGUGCCUAGACUGCC [C10U C18A G19U G36C], which self-cleavage is on record?
The self-cleavage was 0.01.

Which self-cleavage does the source give for GGCAGAGCUCAAUACAUCGUGGCAAAGUGGCUGUGGCUAGAAUGCC [C13U G17U C42A] here?
Its self-cleavage is 0.09.

With GGCAGAGCUCAACACAGCGAGUCAAAGUGGCUGUGGCUAGACUACC [U20A G22U G44A] as the variant, how does the self-cleavage read?
The self-cleavage was 0.08.

With GGCGGCCCUCAACACAUCGUGGCAAAGUGGCUGUGGCCAGACUGCC [A4G A6C G7C G17U U38C] as the variant, how does the self-cleavage read?
Its self-cleavage is 0.06.

With GGAAGAGCUCAACACAGCGUGGCAAAGUAGCAGUGGAUAGACUGCC [C3A G29A U32A C37A] as the variant, how does the self-cleavage read?
Its self-cleavage is 0.28.

With GGCAGAGCUCAACACAGCGUGGCUAAGUGGAUGUGGCUCGUCUGCC [A24U C31A A39C A41U] as the variant, how does the self-cleavage read?
The self-cleavage was 0.02.

With GGCCGAGCUCAACACAGCGUGAGAAAGUGGCUGUGGCUAGACUGCC [A4C G22A C23G] as the variant, how does the self-cleavage read?
The self-cleavage was 0.21.

For GGCAGAGCUCAACACAGCGUGGCGAAGCGGCUGUGGCUACACUGCC [A24G U28C G40C], which self-cleavage is on record?
The self-cleavage was 0.28.

For GGCUGAGCUCAACACGGCUUGGCAUACUGGCUGAGGCUAGACUGCC [A4U A16G G19U A25U G27C U34A], which self-cleavage is on record?
Its self-cleavage is 0.

With GGCAGUGCUAAACACAGCGUGGCAAAGUGGCUGUGGCUAGACUGCU [A6U C10A C46U] as the variant, how does the self-cleavage read?
Its self-cleavage is 0.01.

Which self-cleavage does the source give for GGCAGGGCUCAACACAGGGUGGCAAGGUGGCUGUGGCUAGACUGCC [A6G C18G A26G] here?
Its self-cleavage is 0.02.

With GGCAGAUCUCAUCACAGCGUGGCAAAGUGGGUGGGGCUAGACUGCC [G7U A12U C31G U34G] as the variant, how does the self-cleavage read?
Its self-cleavage is 0.

Which self-cleavage does the source give for GUCAGCGCUCAACACAGCGUCACAAAUUGGCUGUGGCUAGACUGCC [G2U A6C G21C G22A G27U] here?
The self-cleavage was 0.03.

Which self-cleavage does the source give for GGCAGAGCUAAACACAGAUUGGCAAAGUGGCUGUGGCUUGACUGCC [C10A C18A G19U A39U] here?
The self-cleavage was 0.07.

Which self-cleavage does the source give for CGCCGAGCUCAACUCAGCGUGGCACAGUGGCUGUGCCUAGACUGCC [G1C A4C A14U A25C G36C] here?
The self-cleavage was 0.06.

For GGGAGCGCUCAACACAGCGUGGCAAAGUUGCUGUGGCUAGACUGCC [C3G A6C G29U], which self-cleavage is on record?
The self-cleavage was 0.27.

With GGCAGAGCUCUACACAGCGUGGCAAUGUAGCUGUGGCUAGACUGCC [A11U A26U G29A] as the variant, how does the self-cleavage read?
The self-cleavage was 0.14.

With GGCAGGGCUCAACAAUGCGUGGCAAAGUGGCUGUGGCUAGACUGCC [A6G C15A A16U] as the variant, how does the self-cleavage read?
The self-cleavage was 0.27.

For GGGAGAGCUCAACACGGCGUGGCAAAGUGGAUGUGGCUCGACUACC [C3G A16G C31A A39C G44A], which self-cleavage is on record?
Its self-cleavage is 0.01.

Which self-cleavage does the source give for GGCAGAGCUCAACACAGCGUGGCAAGGUCGCUGUGGCUAGACUGCA [A26G G29C C46A] here?
The self-cleavage was 2.14.

Which self-cleavage does the source give for GUUUGAGCUCAACACAGCCUGGCACAGAGGCUGUGGCCAGACUGCC [G2U C3U A4U G19C A25C U28A U38C] here?
Its self-cleavage is 0.01.

Which self-cleavage does the source give for GGCAGAGCUCAACACAGCGUGGGAAAGUGGCUGUCACUAGACUGCC [C23G G35C G36A] here?
Its self-cleavage is 0.11.

For GCCAGAGCUCAACACAGCGUGGCCAAGUGGGUGUGGCUAGACUGCC [G2C A24C C31G], which self-cleavage is on record?
The self-cleavage was 0.02.

For GGCAGAGGUCAACACAGCGUAGCAAAGUGCCUGUGGCUAGACUGCC [C8G G21A G30C], which self-cleavage is on record?
Its self-cleavage is 0.01.

For GGCAGAGCUAAACACAGAGUGGCAUAGUUGAUGUGGCUAGACUGCC [C10A C18A A25U G29U C31A], which self-cleavage is on record?
Its self-cleavage is 0.1.

Which self-cleavage does the source give for GGCAGAGCUCACCACAGCGUGCCAGAGUGGCUGUGGCUAGACUGCU [A12C G22C A25G C46U] here?
Its self-cleavage is 0.01.

Which self-cleavage does the source give for GGCAGAGCUCAACACAGCGUGGCAAAGUGGUUUGGGCUAGACUGGC [C31U G33U U34G C45G] here?
The self-cleavage was 0.03.

With GGCAGGGCUCAACACAGCGUGGCAAAGUGGCUGUGGCUUGACUUCC [A6G A39U G44U] as the variant, how does the self-cleavage read?
The self-cleavage was 0.05.

For GGCAAAGCUCAACACAGCGUGCCCAAGUGGCUCUGGCUAGACUGCC [G5A G22C A24C G33C], which self-cleavage is on record?
Its self-cleavage is 0.05.

For GGCAGACUUCAACACAGCGUGGCAAAGUGGCUAUGGCUAGAAUGCA [G7C C8U G33A C42A C46A], which self-cleavage is on record?
The self-cleavage was 0.28.

Which self-cleavage does the source give for GGCAGAGUUCAACACAGCGUCGCAAAGUGGCUGUGGAUAGACUGCC [C8U G21C C37A] here?
The self-cleavage was 0.07.

Which self-cleavage does the source give for GGCAGAGCACAACACAGCGUGGCAAAGAGGCCGAGGCUAGAUUGCC [U9A U28A U32C U34A C42U] here?
The self-cleavage was 0.12.

For GGCAAAGCUCAACACAUCGUGGCAAAGUGCCUGUGGCUAGACUGCC [G5A G17U G30C], which self-cleavage is on record?
Its self-cleavage is 0.02.

Which self-cleavage does the source give for GGCAGUGCGCAACACAGCGUUGCAAAUUGGCUGAGGCUAGACUGCC [A6U U9G G21U G27U U34A] here?
The self-cleavage was 0.01.

Which self-cleavage does the source give for AGCGGAGCUGAGAACAGCGUGGCAAAGUGGCUGUGGCUAGACUGCC [G1A A4G C10G A12G C13A] here?
Its self-cleavage is 0.03.

For GGCAAAGCUCAAAACAGCGUGGCUAAGUGGCUGUGGCUAGACUGCC [G5A C13A A24U], which self-cleavage is on record?
Its self-cleavage is 0.06.

Which self-cleavage does the source give for GGCAGAGCGCAACACAGCGUGGGAAAGUGGCUGUGGCGAGACGGCC [U9G C23G U38G U43G] here?
Its self-cleavage is 0.01.

Which self-cleavage does the source give for GGCACAGCUCGACACAGCGUGGCAAAGUAACUGUUGCUAGACUGCC [G5C A11G G29A G30A G35U] here?
The self-cleavage was 0.02.

Which self-cleavage does the source give for GGGAGAGCUCAACACAGUGUGGCAAAGUGGAUGUGAUUAGACUGCC [C3G C18U C31A G36A C37U] here?
The self-cleavage was 0.24.

With GGGAGACCUCAACACAGCGUGGCAUAGUGGCUGGGUUUAAACUGCC [C3G G7C A25U U34G G36U C37U G40A] as the variant, how does the self-cleavage read?
The self-cleavage was 0.

Which self-cleavage does the source give for GGCAGAGCUCUACACAGCGUGGCAAAGGGGCUCUGGCUAGACUGCC [A11U U28G G33C] here?
Its self-cleavage is 0.01.

With GGCAGAGCUCAACACAGCGCGGUAAAGUGGCUAUGGCUAGACUGCC [U20C C23U G33A] as the variant, how does the self-cleavage read?
Its self-cleavage is 0.7.
